Measurements published in a collection of fitness landscapes (doi:10.1016/j.celrep.2020.107928).
The full ranking holds about 81,000 sequences; the median of “one-hybrid fitness for binding parS DNA” is about -0.17, and the highest 2% start at about 0.51. The list shows a part of the results.

B1: Caulobacter ParB omega fusion; a variant is named by its letters at X, in order, B8GW30 (parent)
chain: MESVVVGEPGMSEGRRGLGRGLSALLGEVDAAPAQAPGEQLGGSREAPIEILQRNPDQPRRTFREEDLEDLSNSIREKGVLQPILVRPSPDTAGEYQIVAGERAWRAAQRAGLKTVPIMVRELDDLAVLEIGIIENVQRADLNVLEEALSYKVLMEKFERTQENIAQTIGKSXSHVANXMRLLXLPDEVQSYLVSGELTAXHARAIAAAADPVALAKQIIEGGLSVRETEALARKAPNLSAGKSKGGRPPRVKDTDTQALESDLSSVLGLDVSIDHRGSTGTLTITYATLEQLDDLCNRLTRGI

Variants of: B1
Test: one-hybrid fitness for binding parS DNA (scaled: cognate 1, non-cognate 0); higher = stronger binding
Conditions: with parS DNA site
In short: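 Caulobacter ParB libraries with four specificity codons randomised were screened by bacterial one-hybrid selection in the E. coli USO strain, using a HIS3 reporter whose site lies 19 bp from the promoter. Selection ran for 48 hours at 37°C on M9 lacking histidine, with 0.1 mM IPTG and 5 mM 3-AT. Plasmids were Illumina-sequenced before and after selection, three replicate libraries were pooled, and variants with under 10 reads were dropped. Fitness is the log change in each variant's read ratio to wild type, rescaled against the cognate and non-cognate sites.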

Variant	one-hybrid fitness for binding parS DNA
TEPN	≤ 0.2
QIRG	≤ 0.2
YAKR	≤ 0.2
PLPG	≤ 0.2
RQEI	≤ 0.2
SLFS	≤ 0.2
TLAE	≤ 0.2
MLMR	≤ 0.2
AMWT	≤ 0.2
SQGV	≤ 0.2
AWLK	≤ 0.2
VVGM	≤ 0.2
TMRW	≤ 0.2
TTRC	≤ 0.2
HVEC	≤ 0.2
SSEC	≤ 0.2
FGTR	≤ 0.2
YSMI	≤ 0.2
VYDV	≤ 0.2
SPEV	≤ 0.2
YLLR	≤ 0.2
QVRH	≤ 0.2
CCGG	≤ 0.2
TYAQ	≤ 0.2

Variant	one-hybrid fitness for binding parS DNA
NSRD	≤ 0.2
WVNT	≤ 0.2
AWDD	≤ 0.2
RAEV	≤ 0.2
VKAT	≤ 0.2
ISDS	≤ 0.2
CPPV	≤ 0.2
SYIC	≤ 0.2
QKEG	≤ 0.2
PLYG	≤ 0.2
CQTN	≤ 0.2
KCIG	≤ 0.2
RAIE	≤ 0.2
STFI	≤ 0.2
ECLL	≤ 0.2
PYTH	≤ 0.2
ARNY	≤ 0.2
SLIE	≤ 0.2
SRWR	≤ 0.2
CLPE	≤ 0.2
MEYD	≤ 0.2
PGTN	≤ 0.2
VEHR	≤ 0.2
FTGC	≤ 0.2

Variant	one-hybrid fitness for binding parS DNA
ISST	≤ 0.2
CRPS	≤ 0.2
VHPS	≤ 0.2
FHAL	≤ 0.2
SKET	≤ 0.2
VWNR	≤ 0.2
HKSF	≤ 0.2
RILY	0.483
AFTS	≤ 0.2
HGHE	≤ 0.2
WYLS	≤ 0.2
EGSC	≤ 0.2
QVNK	≤ 0.2
ENNV	≤ 0.2
NLYG	≤ 0.2
CETD	≤ 0.2
TILE	≤ 0.2
QSQN	≤ 0.2
NSRY	≤ 0.2
PNSC	≤ 0.2
TVES	≤ 0.2
DDMT	≤ 0.2
NCSR	≤ 0.2
WTSV	≤ 0.2

Variant	one-hybrid fitness for binding parS DNA
DNHC	≤ 0.2
HVPG	≤ 0.2
MWKS	≤ 0.2
WWRG	≤ 0.2
RRLT	0.623
DELW	≤ 0.2
CLGC	≤ 0.2
LRRE	≤ 0.2
CAYR	≤ 0.2
PMVV	≤ 0.2
IENI	≤ 0.2
SWTH	≤ 0.2
NPYA	≤ 0.2
YSIV	≤ 0.2
EQRE	≤ 0.2
RPHI	≤ 0.2
KMFC	≤ 0.2
EPAI	≤ 0.2
LLNH	≤ 0.2
GGSR	≤ 0.2
CPPN	≤ 0.2
YVIG	≤ 0.2
FQPG	≤ 0.2
GQLM	≤ 0.2

Variant	one-hybrid fitness for binding parS DNA
FAHW	≤ 0.2
RTPW	≤ 0.2
NPWT	≤ 0.2
RHLA	0.533
WENG	≤ 0.2
LEMS	≤ 0.2
SMDR	≤ 0.2
YARG	≤ 0.2
RVRF	0.266
HIYV	≤ 0.2
DSNH	≤ 0.2
GLLS	≤ 0.2
YSKS	≤ 0.2
SIHS	≤ 0.2
KRLY	≤ 0.2
NAFR	≤ 0.2
QLKG	≤ 0.2
TVKP	≤ 0.2
ADLK	≤ 0.2
IKSN	≤ 0.2
VENL	≤ 0.2
YRQT	≤ 0.2
EKSV	≤ 0.2
YRER	≤ 0.2

Variant	one-hybrid fitness for binding parS DNA
HALE	≤ 0.2
PFKR	≤ 0.2
CHHG	≤ 0.2
WQNY	≤ 0.2
GTAF	≤ 0.2
TLLS	≤ 0.2
QRPL	≤ 0.2
AINC	≤ 0.2
SRPG	≤ 0.2
WYFG	≤ 0.2
HIFI	≤ 0.2
YLRM	≤ 0.2
VEPG	≤ 0.2
CKVR	≤ 0.2
RYIT	0.628
VEVA	≤ 0.2
NIRS	≤ 0.2
PRIS	≤ 0.2
WLQS	≤ 0.2
NRPF	≤ 0.2
LRTY	≤ 0.2
SRQI	≤ 0.2
PHCV	≤ 0.2
NRPT	≤ 0.2

Variant	one-hybrid fitness for binding parS DNA
SCRL	≤ 0.2
GHHM	≤ 0.2
KNDR	≤ 0.2
VNHS	≤ 0.2
SLSL	≤ 0.2
TLNV	≤ 0.2
LRIT	≤ 0.2
DSHG	≤ 0.2
LNGV	≤ 0.2
AEQC	≤ 0.2
QNRY	≤ 0.2
EITR	≤ 0.2
AKLS	≤ 0.2
KRFG	≤ 0.2
TVPD	≤ 0.2
RHHN	0.391
PCPA	≤ 0.2
MMST	≤ 0.2
KRNY	≤ 0.2
RFMQ	≤ 0.2
TFNL	≤ 0.2
GEVT	≤ 0.2
TKQA	≤ 0.2
GWYA	≤ 0.2

Variant	one-hybrid fitness for binding parS DNA
MATT	≤ 0.2
LAPG	≤ 0.2
FGLR	≤ 0.2
PYWS	≤ 0.2
WIDC	≤ 0.2
QQDY	≤ 0.2
LHVS	≤ 0.2
ATVH	≤ 0.2
RAGW	0.253
LQHC	≤ 0.2
QQHM	≤ 0.2
RFPL	≤ 0.2
QKDW	≤ 0.2
WAWT	≤ 0.2
PRET	≤ 0.2
QCKT	≤ 0.2
LPCG	≤ 0.2
PNRV	≤ 0.2
VHGR	≤ 0.2
GSKV	≤ 0.2
TCQT	≤ 0.2
AQKD	≤ 0.2
QWTC	≤ 0.2
TDET	≤ 0.2

Variant	one-hybrid fitness for binding parS DNA
NCDR	≤ 0.2
AGLK	≤ 0.2
KFVG	≤ 0.2
ERSM	≤ 0.2
RPLW	≤ 0.2
RWLV	≤ 0.2
YKYS	≤ 0.2
QSHD	≤ 0.2
MWAY	≤ 0.2
TTAH	≤ 0.2
KEGY	≤ 0.2
RSSW	0.223
PSLD	≤ 0.2
LAEL	≤ 0.2
PMLG	≤ 0.2
QELD	≤ 0.2
YNTM	≤ 0.2
TTFD	≤ 0.2
SGSF	≤ 0.2
TQLK	≤ 0.2
DDPC	≤ 0.2
VCPR	≤ 0.2
VCKR	≤ 0.2
LNGM	≤ 0.2

Variant	one-hybrid fitness for binding parS DNA
SLNT	≤ 0.2
PETG	≤ 0.2
CARM	≤ 0.2
RGTY	0.28
WTPS	≤ 0.2
DLDM	≤ 0.2
RKRT	0.658
HGEV	≤ 0.2
FRVC	≤ 0.2
TDRQ	≤ 0.2
HIIS	≤ 0.2
PYWA	≤ 0.2
TCWW	0.215
RRQQ	≤ 0.2
NPFC	≤ 0.2
TNFL	≤ 0.2
RQKL	≤ 0.2
GNKG	≤ 0.2
EMGL	≤ 0.2
AHPS	≤ 0.2
QRWC	≤ 0.2
QIAY	≤ 0.2
MLNT	≤ 0.2
ADPA	≤ 0.2

Variant	one-hybrid fitness for binding parS DNA
QADC	≤ 0.2
LEEI	≤ 0.2
SKWD	≤ 0.2
GSQA	≤ 0.2
WCSK	≤ 0.2
RPDR	≤ 0.2
TWCM	≤ 0.2
RDQN	≤ 0.2
QSRP	≤ 0.2
RDKN	≤ 0.2
RNWR	≤ 0.2
KGKQ	≤ 0.2
SSYA	≤ 0.2
PCFS	≤ 0.2
VMGY	≤ 0.2
EVSM	≤ 0.2
AYAK	≤ 0.2
YFRG	≤ 0.2
ADRF	≤ 0.2
TQCC	≤ 0.2
SPPY	≤ 0.2
PMMN	≤ 0.2
MWYT	≤ 0.2
AKAT	≤ 0.2

Variant	one-hybrid fitness for binding parS DNA
KVTL	≤ 0.2
DSTC	≤ 0.2
QEYY	≤ 0.2
RVWG	0.982
AIPW	≤ 0.2
TAPP	≤ 0.2
PWNY	≤ 0.2
TAPI	≤ 0.2
PVMN	≤ 0.2
VSKH	≤ 0.2
VRGM	≤ 0.2
SRPP	≤ 0.2
PHNW	≤ 0.2
QIDG	≤ 0.2
RIMY	0.483
MVCD	≤ 0.2
DLQE	≤ 0.2
RSMC	0.928
TTRL	≤ 0.2
INVS	≤ 0.2
AGWG	≤ 0.2
QKMQ	≤ 0.2
KSER	≤ 0.2
DVRG	≤ 0.2

Variant	one-hybrid fitness for binding parS DNA
AGCR	≤ 0.2
MDSG	≤ 0.2
PMTA	≤ 0.2
AYTN	≤ 0.2
QKGC	≤ 0.2
ANAQ	≤ 0.2
LQNH	≤ 0.2
PFWR	≤ 0.2
TVTI	≤ 0.2
RMPV	≤ 0.2
QINY	≤ 0.2
PAHT	≤ 0.2
GTCR	≤ 0.2
AHHE	≤ 0.2
PCTW	≤ 0.2
WPSR	≤ 0.2
QAKP	≤ 0.2
PSCK	≤ 0.2
